Paper PMC4336329 (PLoS ONE, 2015)
The campaign covered roughly 310,000 compounds. About 2,200 (0.71%) showed an effect of 50% or more. Effects have a minus sign here. The list shows a part of the results.

Each compound was assayed against human ether-à-go-go-related gene (hERG) potassium channel (human, UniProt Q12809) (assay: primary screen, population patch clamp on CHO cells stably expressing hERG).
Chain of human ether-à-go-go-related gene (hERG) potassium channel (Q12809 whole entry, looked up): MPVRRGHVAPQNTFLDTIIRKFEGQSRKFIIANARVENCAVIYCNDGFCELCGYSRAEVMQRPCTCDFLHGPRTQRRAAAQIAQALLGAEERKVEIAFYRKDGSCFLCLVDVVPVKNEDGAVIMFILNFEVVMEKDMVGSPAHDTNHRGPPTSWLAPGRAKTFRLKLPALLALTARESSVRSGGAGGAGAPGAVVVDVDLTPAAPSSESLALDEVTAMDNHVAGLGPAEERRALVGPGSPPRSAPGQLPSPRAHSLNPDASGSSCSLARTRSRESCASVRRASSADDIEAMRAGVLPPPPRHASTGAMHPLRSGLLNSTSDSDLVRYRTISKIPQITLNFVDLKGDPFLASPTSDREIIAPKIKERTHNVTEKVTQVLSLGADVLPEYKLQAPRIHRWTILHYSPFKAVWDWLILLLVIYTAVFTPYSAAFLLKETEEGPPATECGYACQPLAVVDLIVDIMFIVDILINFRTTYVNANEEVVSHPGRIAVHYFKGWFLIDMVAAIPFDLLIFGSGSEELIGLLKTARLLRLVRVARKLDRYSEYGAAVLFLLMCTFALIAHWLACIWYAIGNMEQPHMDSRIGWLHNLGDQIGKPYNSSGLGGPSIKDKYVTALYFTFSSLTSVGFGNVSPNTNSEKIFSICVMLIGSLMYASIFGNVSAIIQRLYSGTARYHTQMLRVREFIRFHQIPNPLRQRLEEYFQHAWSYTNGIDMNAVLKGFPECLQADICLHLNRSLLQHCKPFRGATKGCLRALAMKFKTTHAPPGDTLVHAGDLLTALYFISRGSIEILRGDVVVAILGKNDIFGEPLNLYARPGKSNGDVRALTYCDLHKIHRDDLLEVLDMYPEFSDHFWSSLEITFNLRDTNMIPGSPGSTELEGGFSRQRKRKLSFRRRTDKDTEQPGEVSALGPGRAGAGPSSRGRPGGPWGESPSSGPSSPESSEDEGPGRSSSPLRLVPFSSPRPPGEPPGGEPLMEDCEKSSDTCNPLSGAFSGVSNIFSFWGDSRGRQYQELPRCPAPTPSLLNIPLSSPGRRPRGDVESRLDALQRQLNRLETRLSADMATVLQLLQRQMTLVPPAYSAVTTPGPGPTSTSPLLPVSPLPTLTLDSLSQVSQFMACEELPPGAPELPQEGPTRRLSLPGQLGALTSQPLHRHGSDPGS

| SMILES | hERG current change (%, negative = inhibition) at 1uM |
| --- | --- |
| COc1ccc(-n2nc3c(c2NC(=O)CCl)CSC3)cc1 | 13.1% |
| Cc1ccccc1N(CC(=O)NCC1CCCO1)C(=O)C1(C)CC(=O)N=C2C=CC=CN21 (stereo not drawn) | 7.3% |
| Cn1c(-c2ccc3c(c2)OCO3)cnc1NCc1cccc(Cl)c1.O=C(O)C(=O)O | -18.3% |
| NC(=O)Cn1c(=O)n(Cc2ccco2)c(=O)c2c3c(sc21)CCCCC3 | 12.3% |
| C=CCNC(=S)NNC(=O)c1ccccc1OCC | 8.88% |
| COc1ccccc1C(=O)NCc1nnc(SCC(=O)Nc2nccs2)n1C | 13.7% |
| CC(C)N=c1c([N+](=O)[O-])nn(C)n1O | -21.3% |
| COc1cc(NC(=O)c2cc3ccccc3o2)ccc1NC(=O)c1ccco1 | 0.419% |
| CCOC(=O)C1(CC2CCCCO2)CCN(C2CCSCC2)CC1 (stereo not drawn) | -5.25% |
| Cc1nn(-c2ccccn2)c2c1C(=O)CC(C)(C)C2Br (stereo not drawn) | 3.12% |
| Cc1ccc(C(CC(=O)O)Nc2nc(N3CCOCC3)nc(N3CCOCC3)n2)cc1 (stereo not drawn) | 5.93% |
| CCCCC(=O)OCC(=O)Nc1cccc(S(=O)(=O)NC2=NCCCCC2)c1 | 11.1% |
| CC1CCc2c(sc(NC(=O)c3ccc(N4C(=O)CCC4=O)cc3)c2C(N)=O)C1 (stereo not drawn) | 3.09% |
| O=C(/C=C/c1ccc2c(c1)OCCCO2)c1ccccc1O | 7.78% |
| Clc1ccc(-c2nnc(-c3ccc(Br)cc3)c(N3CCSCC3)n2)cc1 | 5.94% |
| CCOC(=O)C1=C(O)/C(=C/c2ccc(OCC(=O)O)c(OCC)c2)SC1=Nc1ccccc1 | 12.9% |
| COc1cc(-c2nc3cnccn3c2Nc2c(C)cccc2C)ccc1O | 11.3% |
| CC(=O)Oc1cccc(N2C(=O)c3ccc(C(=O)Nc4cccnc4)cc3C2=O)c1 | 9.97% |
| CCCSc1nsc(NC(=O)C(c2ccccc2)c2ccccc2)n1 | 17.3% |
| COc1ccccc1N1CCN(C(=O)c2nn(C)c3c2CS(=O)(=O)c2ccccc2-3)CC1 | 13.2% |
| O=C(COC(=O)c1cc(=O)[nH]c2ccccc12)NCc1cccc(Cl)c1 | -4.5% |
| COc1ccc(OC)c(NC(=O)CSc2nc(N3CCOCC3)nc(N3CCOCC3)n2)c1 | 0.455% |

| SMILES | hERG current change (%, negative = inhibition) at 1uM |
| --- | --- |
| CSc1ccccc1NC(=O)CN(C)C(=O)CNc1ccc(C(F)(F)F)cc1[N+](=O)[O-] | 8.68% |
| O=C(COc1ccc(F)cc1Cl)Nc1ccc(S(=O)(=O)Nc2nccs2)cc1 | 5.21% |
| [O-][n+]1cccc2c(Br)cc(Br)c(O)c21 | -1.06% |
| COc1cccc2c1OCC1COc3c(c(=O)n(C)c(=O)n3C)C21 (stereo not drawn) | 6.39% |
| Cc1cc(C(=O)CSc2n[nH]c(N)n2)c(C)n1-c1ccc2c(c1)OCO2 | -1.2% |
| O=C1CCCN1CCC1CCCCN1Cc1nc(-c2cnccn2)no1 (stereo not drawn) | 18.2% |
| Cc1ccccc1NS(=O)(=O)c1cc(C(=O)Nc2cccnc2)ccc1C | 15.7% |
| COc1cc2ccccc2cc1C(=O)OCc1nc2ccsc2c(=O)[nH]1 | 13.2% |
| O=[N+]([O-])c1ccccc1COc1ccc(Cl)c2cccnc12 | 11.5% |
| CC(O)CNc1nc2ccccc2n1CC(=O)N1CCN(Cc2ccccc2)CC1 (stereo not drawn) | 4% |
| O=C(Nc1ccc(Br)cn1)c1ccc2ccccc2c1 | 19.3% |
| N#CC1=C(N)Oc2c(ccc3ccccc23)C1c1cccs1 (stereo not drawn) | 3.42% |
| O=C(CN1CCN(C(=O)c2cccc(-n3cnnn3)c2)CC1)Nc1ccccc1Cl | -92.9% |
| COCCN(C(=O)c1ccc(N2CCCC2=O)cc1)c1c(N)n(CC(C)C)c(=O)[nH]c1=O | 12% |
| CCOC(=O)c1sc2ncn(/N=C/c3ccc(O)c(OC)c3)c(=O)c2c1C | 20.7% |
| Cc1cccc(NC(=O)CNC(=O)COC(=O)c2ccco2)c1C | 9.41% |
| Cc1c(CCO)c(=O)[nH]n1S(=O)(=O)c1ccccc1 | 14.2% |
| COc1ccccc1C(=O)NCC(=O)OCC(=O)c1cccc2ccccc12 | 10.6% |
| CSc1cccc(NC(=O)c2ccccc2N(C)S(C)(=O)=O)c1 | -6.82% |
| CC(C)(CNc1ccc([N+](=O)[O-])cc1Cl)N1CCOCC1 | 8.79% |
| COC(=O)Nc1cc(C)n(-c2ccccc2)n1 | 12.9% |
| COCCn1nc2cc(C(=O)NCc3cc(C(F)(F)F)cc(C(F)(F)F)c3)ccc2c1OC | 16% |

| SMILES | hERG current change (%, negative = inhibition) at 1uM |
| --- | --- |
| CC(C)CCNC(=O)c1c[nH]c2ccc(S(=O)(=O)N3CCOCC3)cc2c1=O | 10.4% |
| CCOc1ccc(S(=O)(=O)Nc2ccc(C(=O)NCC3CCCO3)cc2)cc1 (stereo not drawn) | -3.44% |
| NS(=O)(=O)c1ccc(CCNS(=O)(=O)c2ccc(Cl)cc2)cc1 | 7.98% |
| CCOc1ccc(-c2nnc(SCC(=O)N(CC)CC)n2N)cc1 | 8.24% |
| CCc1cccc(CC)c1NC(=S)N1CC2CC(C1)c1cccc(=O)n1C2 (stereo not drawn) | 2.69% |
| CC(C)(C)NC(=O)NC(=O)COC(=O)CCC1CCCC1 | 13.8% |
| CC(C)C(=O)NCCc1nc(-c2ccc(Cl)cc2)no1 | 8.04% |
| O=C(c1ccccc1)N1N=C(C(F)(F)F)CC1(O)c1ccc(F)cc1 (stereo not drawn) | 2.09% |
| Cc1ccc(C(=O)COC(=O)c2cc(Cl)nc3ccccc23)cc1 | 2% |
| Cc1ccc(Cn2ncc3c(NCCCN(C)C)ncnc32)cc1 | 8.12% |
| COc1ccccc1CNc1ncnc2c1cnn2-c1ccccc1 | 4.83% |
| O=C(CCN1c2ccccc2Sc2ccccc21)Oc1ccccc1 | 7.66% |
| COc1ccc(S(=O)(=O)N2CCN(S(=O)(=O)c3ccc4c(c3)OCCO4)CC2)cc1 | 10.8% |
| O=C1CCCN1c1ccc(S(=O)(=O)Oc2cccc(Cl)c2)cc1[N+](=O)[O-] | 11% |
| COc1ccc(S(=O)(=O)N(C)C)cc1NC(=O)Cc1c[nH]c2ccccc12 | 16.5% |
| CCOc1ccc(NC(=O)C2CCCN(C(=O)NCc3ccccc3)C2)cc1 (stereo not drawn) | 14% |
| Cc1onc(-c2ccccc2)c1C(=O)NCCCc1ccccc1 | 6.17% |
| Cc1cc(C(=O)OCC(=O)Nc2ccc(S(N)(=O)=O)cc2)c2ccccc2n1 | 9.07% |
| COc1ccc(S(=O)(=O)N(C)CC(=O)N2CCCCC2)cc1Cl | 12.3% |
| O=C(c1ccc(Cl)cc1)C1CCCN(C2CCSCC2)C1 (stereo not drawn) | -63.4% |
| Cc1ccc(S(=O)(=O)NCC2CCC(C(=O)N3CCOCC3)CC2)cc1 (stereo not drawn) | 9.78% |
| Cc1ccc(S(=O)(=O)CCC(=O)OCC(=O)c2c[nH]c3ccccc23)cc1 | 12.7% |

| SMILES | hERG current change (%, negative = inhibition) at 1uM |
| --- | --- |
| COc1ccc(NS(=O)(=O)c2cc(NC(=O)/C=C/c3cccs3)ccc2N2CCOCC2)cc1 | -0.951% |
| COc1ccccc1Nc1ncccc1C(=O)NCc1ccccc1 | 4.32% |
| O=C(CCc1nc2ccccc2c(=O)[nH]1)Nc1cc(Cl)ccc1N1CCCC1 | 10% |
| COc1cc(NC(=S)NCc2ccco2)cc(OC)c1OC | 2.98% |
| COc1cccc(CNC(=O)C2CCN(S(=O)(=O)c3ccc4c(c3)NC(=O)C(C)S4)CC2)c1 (stereo not drawn) | 2.02% |
| COc1cc(C(=O)NCCCNc2nc3c(C)cc(C)cc3cc2C#N)cc(OC)c1OC | 17% |
| Cn1cc(Cl)c(-c2n[nH]c(=S)n2C2CCCCC2)n1 | 10.9% |
| COCCn1c(N)c(N(Cc2ccccc2)C(=O)Cc2ccccc2F)c(=O)[nH]c1=O | 8.7% |
| CCCCN(C(=O)c1ccc(C)c(S(=O)(=O)N2CCOCC2)c1)c1c(N)n(CC(C)C)c(=O)[nH]c1=O | -57.9% |
| O=[N+]([O-])c1cc(-c2ccc([As](=O)(O)O)cc2)ccc1[As](=O)(O)O | 17.2% |
| CC(C)Nc1nc(NC(C)C)nc(Oc2ccc(OCc3ccccc3)nn2)n1 | 9.27% |
| COc1ccc(Cc2nnc(NN)[nH]c2=O)cc1OC | 9.15% |
| Cc1cccc(S(=O)(=O)Nc2ccc(-c3cn4ccccc4n3)cc2)c1 | 7.2% |
| COc1ccc(NC(=O)CN(C)C(=O)Cc2ccc3c(c2)OCCO3)cc1 | 13.8% |
| CCC(=O)N(CC)C1=C(O)c2ccccc2C(=O)C1=O | 3.99% |
| C=CC(=O)NN(C)c1ncc(C(F)(F)F)cc1Cl | 19.6% |
| O=[N+]([O-])c1cccc2c([N+](=O)[O-])cccc12 | 10.5% |
| O=C(O)CCn1cc(/C=C/C(=O)c2ccc(Cl)cc2)c(-c2ccc(Br)cc2)n1 | 11.7% |
| CN(C)C=O.COc1ccc(-n2cnnc2SCC(=O)Nc2ccccc2F)cc1 | -1.5% |
| CCCCS(=O)c1snnc1C (stereo not drawn) | 14.5% |
| O=C(COC(=O)c1ccccc1SCC(=O)N1CCCC1)Nc1ccccc1C(F)(F)F | -0.929% |
